Experimental data from PMC10516938, “Conformational dynamics of cohesin/Scc2 loading complex are regulated by Smc3 acetylation and ATP binding” (Nature Communications, 2023).
No constants are given. Whether binding was seen depends on the method and setting. Binding seen in cells or lysates may run through a third protein. Some binding calls cover weakened binding; strength is not graded here.

T1: Smc1 E1102C E1158Q (S. cerevisiae) (UniProt P32908)
T1 sequence: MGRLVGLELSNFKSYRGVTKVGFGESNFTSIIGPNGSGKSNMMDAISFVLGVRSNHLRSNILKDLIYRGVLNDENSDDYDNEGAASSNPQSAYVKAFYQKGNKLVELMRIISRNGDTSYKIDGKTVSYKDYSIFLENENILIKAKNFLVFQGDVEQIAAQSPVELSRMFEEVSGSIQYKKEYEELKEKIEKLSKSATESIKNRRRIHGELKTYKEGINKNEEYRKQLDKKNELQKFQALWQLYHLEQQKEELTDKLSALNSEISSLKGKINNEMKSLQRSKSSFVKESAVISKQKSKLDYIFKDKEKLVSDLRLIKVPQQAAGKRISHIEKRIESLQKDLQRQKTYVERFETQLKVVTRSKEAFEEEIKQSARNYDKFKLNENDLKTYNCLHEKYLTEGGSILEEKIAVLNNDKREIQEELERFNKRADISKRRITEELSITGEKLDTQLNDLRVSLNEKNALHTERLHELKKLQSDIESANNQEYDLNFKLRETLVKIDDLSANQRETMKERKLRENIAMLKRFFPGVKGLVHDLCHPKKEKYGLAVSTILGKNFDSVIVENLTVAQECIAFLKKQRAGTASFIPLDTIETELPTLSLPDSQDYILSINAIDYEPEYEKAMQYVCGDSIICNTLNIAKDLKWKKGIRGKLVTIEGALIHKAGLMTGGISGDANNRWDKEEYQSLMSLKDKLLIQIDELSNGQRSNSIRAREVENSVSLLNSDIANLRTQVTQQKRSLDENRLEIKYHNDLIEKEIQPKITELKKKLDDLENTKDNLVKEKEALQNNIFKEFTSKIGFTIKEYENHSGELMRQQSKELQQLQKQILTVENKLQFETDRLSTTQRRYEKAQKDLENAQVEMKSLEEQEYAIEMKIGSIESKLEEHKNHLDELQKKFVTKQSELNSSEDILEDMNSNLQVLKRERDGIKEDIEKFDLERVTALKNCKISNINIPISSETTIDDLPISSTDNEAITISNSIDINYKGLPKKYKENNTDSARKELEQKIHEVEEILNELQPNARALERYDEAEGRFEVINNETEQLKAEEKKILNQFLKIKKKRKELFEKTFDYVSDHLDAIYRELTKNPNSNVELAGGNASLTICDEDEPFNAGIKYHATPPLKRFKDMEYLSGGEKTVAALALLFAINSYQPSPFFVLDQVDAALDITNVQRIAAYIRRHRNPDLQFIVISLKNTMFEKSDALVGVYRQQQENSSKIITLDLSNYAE

T2: Smc3 Q67C E1155Q (S. cerevisiae) (UniProt P47037)
T2 sequence: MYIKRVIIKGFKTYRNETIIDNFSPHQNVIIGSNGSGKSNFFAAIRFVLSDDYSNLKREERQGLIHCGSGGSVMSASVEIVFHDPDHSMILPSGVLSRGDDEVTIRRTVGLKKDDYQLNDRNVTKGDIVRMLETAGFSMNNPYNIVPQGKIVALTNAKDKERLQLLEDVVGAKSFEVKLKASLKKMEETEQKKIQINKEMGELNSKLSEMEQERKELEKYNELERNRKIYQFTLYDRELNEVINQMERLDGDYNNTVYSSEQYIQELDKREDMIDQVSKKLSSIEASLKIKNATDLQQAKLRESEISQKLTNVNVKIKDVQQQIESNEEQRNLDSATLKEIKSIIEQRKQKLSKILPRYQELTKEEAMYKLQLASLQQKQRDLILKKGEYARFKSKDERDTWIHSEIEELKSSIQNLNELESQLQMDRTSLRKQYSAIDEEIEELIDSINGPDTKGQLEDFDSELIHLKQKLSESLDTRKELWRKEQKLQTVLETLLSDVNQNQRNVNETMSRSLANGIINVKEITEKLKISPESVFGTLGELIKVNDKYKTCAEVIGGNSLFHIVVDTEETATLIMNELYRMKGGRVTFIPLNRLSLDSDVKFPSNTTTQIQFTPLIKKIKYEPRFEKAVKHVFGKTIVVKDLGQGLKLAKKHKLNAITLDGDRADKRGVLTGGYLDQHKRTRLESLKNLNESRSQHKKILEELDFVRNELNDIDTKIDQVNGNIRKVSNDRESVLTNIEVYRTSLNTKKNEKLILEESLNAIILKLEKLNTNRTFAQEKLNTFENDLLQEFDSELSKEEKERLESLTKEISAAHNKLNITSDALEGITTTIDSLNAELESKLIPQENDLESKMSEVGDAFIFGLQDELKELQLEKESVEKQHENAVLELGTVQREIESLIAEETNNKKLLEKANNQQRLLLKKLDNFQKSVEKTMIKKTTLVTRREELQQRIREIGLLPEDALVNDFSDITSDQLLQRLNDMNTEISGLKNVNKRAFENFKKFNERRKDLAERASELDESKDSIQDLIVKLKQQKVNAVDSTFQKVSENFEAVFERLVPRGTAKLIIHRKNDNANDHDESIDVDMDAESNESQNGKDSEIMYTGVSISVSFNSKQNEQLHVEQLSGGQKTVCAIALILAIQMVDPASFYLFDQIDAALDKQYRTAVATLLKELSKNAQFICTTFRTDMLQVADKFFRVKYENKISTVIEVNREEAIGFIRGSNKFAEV


Tests used:
[1] = target: T1, Smc1 E1102C E1158Q (S. cerevisiae); experiment: cross-linking; in vivo BMOE cross-link of cysteine pairs in yeast cells arrested in late G1 by non-degradable Sic1(9m); Scc1-PK immunoprecipitated, western blot, band intensities quantified
[2] = target: T2, Smc3 Q67C E1155Q (S. cerevisiae); experiment: as above

binding [1]	binding [2]	Binder
binds	–	Scc2 T1281C (protein, UniProt Q04002 1-1493) MSYPGKDKNIPGRIIEALEDLPLSYLVPKDGLAALVNAPMRVSLPFDKTIFTSADDGRDVNINVLGTANSTTSSIKNEAEKERLVFKRPSNFTSSANSVDYVPTNFLEGLSPLAQSVLSTHKGLNDSINIEKKSEIVSRPEAKHKLESVTSNAGNLSFNDNSSNKKTKTSTGVTMTQANLAEQYLNDLKNILDIVGFDQNSAEIGNIEYWLQLPNKKFVLTTNCLTKLQMTIKNITDNPQLSNSIEITWLLRLLDVMVCNIKFSKSSLKMGLDDSMLRYIALLSTIVLFNIFLLGKNDSNLHRESYIMEPVNFLSDLIESLKILTIEYGSLKIEFDTFQEALELLPKYIRNGPFLDDNVTAKLVYIFSDLLMNNDIEATTNIQFQSFWDNVKRISSDILVSLFGSFDQQRGFIIEELLSHIEKLPTKRIQKKLRKVGNQNIYITDFTFTLMSMLENINCYSFCNQMKDIAPENIDLLKNEYKKQEEFLFNIVEHINDTILERFFKNPSALRYVIDNFVQDLLLLISSPQWPVTEKILSSLLKRLLSVYSPSMQVSANIETICLQLIGNIGSTIFDIKCSTRDHEDNNLIKMINYPETLPHFFKSFEECIAYNETIKCRRSATRFLWNLRLGTILILEEYTKDAKEQIITVDNELKKILEQIKDGGLGPELENREADFSTIKLDYFSILHAFELLNLYDPYLKLILSLLAKDKIKLRSTAIKCLSMLASKDKVILSNPMVKETIHRRLNDSSASVKDAILDLVSINSSYFEFYQQINNNYNDDSIMVRKHVLRINEKMYDETNDIVTKVYVIARILMKIEDEEDNIIDMARLILLNRWILKVHEVLDQPEKLKEISSSVLLVMSRVAIMNEKCSQLFDLFLNFYLLNKEAHSKEAYDKITHVLTILTDFLVQKIVELNSDDTNEKNSIVDKQNFLNLLAKFADSTVSFLTKDHITALYPYMVSDEKSDFHYYILQVFRCTFEKLANFKQKFLYDLETTLLSRLPKMNVREIDEAMPLIWSVATHRHDTARVAKACSSCLSHLHPYINKANNEEAAIVVDGKLQRLIYLSTGFARFCFPKPSNDKIAFLQEGETLYEHITKCLLVLSKDKITHVIRRVAVKNLTKLCGNHPKLFNSRHVLHLLDKEFQSDQLDIKLVILESLYDLFLLEERKSVRNTGVNSTLSSNSILKKKLLKTNRVEFANDGVCSALATRFLDNILQLCLLRDLKNSLVAIRLLKLILKFGYTNPSHSIPTVIALFASTSQYIRHVAYELLEDLFEKYECLVFSSLSRGVTKAIHYSIHTDEKYYYKHDHFLSLLEKLCGTGKKNGPKFFKVLKRIMQSYLDDITDLTSTNSSVQKSIFVLCTNISNITFVSQYDLVSLLKTIDLTTDRLKEVIMDEIGDNVSSLSVSEEKLSGIILIQLSLQDLGTYLLHLYGLRDDVLLLDIVEESELKNKQLPAKKPDISKFSAQLENIEQYSSNGKLLTYFRKHVKDT
–	binds	Scc2 T1175C (natural protein, S. cerevisiae, UniProt Q04002 1-1493, looked up, Scc2, S. cerevisiae; source: S. cerevisiae W303, in vivo, whole-cell extract) MSYPGKDKNIPGRIIEALEDLPLSYLVPKDGLAALVNAPMRVSLPFDKTIFTSADDGRDVNINVLGTANSTTSSIKNEAEKERLVFKRPSNFTSSANSVDYVPTNFLEGLSPLAQSVLSTHKGLNDSINIEKKSEIVSRPEAKHKLESVTSNAGNLSFNDNSSNKKTKTSTGVTMTQANLAEQYLNDLKNILDIVGFDQNSAEIGNIEYWLQLPNKKFVLTTNCLTKLQMTIKNITDNPQLSNSIEITWLLRLLDVMVCNIKFSKSSLKMGLDDSMLRYIALLSTIVLFNIFLLGKNDSNLHRESYIMEPVNFLSDLIESLKILTIEYGSLKIEFDTFQEALELLPKYIRNGPFLDDNVTAKLVYIFSDLLMNNDIEATTNIQFQSFWDNVKRISSDILVSLFGSFDQQRGFIIEELLSHIEKLPTKRIQKKLRKVGNQNIYITDFTFTLMSMLENINCYSFCNQMKDIAPENIDLLKNEYKKQEEFLFNIVEHINDTILERFFKNPSALRYVIDNFVQDLLLLISSPQWPVTEKILSSLLKRLLSVYSPSMQVSANIETICLQLIGNIGSTIFDIKCSTRDHEDNNLIKMINYPETLPHFFKSFEECIAYNETIKCRRSATRFLWNLRLGTILILEEYTKDAKEQIITVDNELKKILEQIKDGGLGPELENREADFSTIKLDYFSILHAFELLNLYDPYLKLILSLLAKDKIKLRSTAIKCLSMLASKDKVILSNPMVKETIHRRLNDSSASVKDAILDLVSINSSYFEFYQQINNNYNDDSIMVRKHVLRINEKMYDETNDIVTKVYVIARILMKIEDEEDNIIDMARLILLNRWILKVHEVLDQPEKLKEISSSVLLVMSRVAIMNEKCSQLFDLFLNFYLLNKEAHSKEAYDKITHVLTILTDFLVQKIVELNSDDTNEKNSIVDKQNFLNLLAKFADSTVSFLTKDHITALYPYMVSDEKSDFHYYILQVFRCTFEKLANFKQKFLYDLETTLLSRLPKMNVREIDEAMPLIWSVATHRHDTARVAKACSSCLSHLHPYINKANNEEAAIVVDGKLQRLIYLSTGFARFCFPKPSNDKIAFLQEGETLYEHITKCLLVLSKDKITHVIRRVAVKNLTKLCGNHPKLFNSRHVLHLLDKEFQSDQLDIKLVILESLYDLFLLEERKSVRNCGVNSTLSSNSILKKKLLKTNRVEFANDGVCSALATRFLDNILQLCLLRDLKNSLVAIRLLKLILKFGYTNPSHSIPTVIALFASTSQYIRHVAYELLEDLFEKYETLVFSSLSRGVTKAIHYSIHTDEKYYYKHDHFLSLLEKLCGTGKKNGPKFFKVLKRIMQSYLDDITDLTSTNSSVQKSIFVLCTNISNITFVSQYDLVSLLKTIDLTTDRLKEVIMDEIGDNVSSLSVSEEKLSGIILIQLSLQDLGTYLLHLYGLRDDVLLLDIVEESELKNKQLPAKKPDISKFSAQLENIEQYSSNGKLLTYFRKHVKDT
